The campaign covered roughly 390,000 compounds. About 4,700 (1.2%) were called active. Inconclusive means that the source gave no clear call. Such entries were picked first, then a sample of the others. Calls follow the shape of the dose curve; as a rule, active = well fitted inhibition curve with a large enough effect; inconclusive = small, poorly fitted or top-dose-only effect, or another doubt; inactive = no such curve, though single readings can be large or run the other way. A potency beside an inconclusive call is a rough fit, not a confirmed value.
biological target: DNA polymerase eta (Homo sapiens) (UniProt Q9Y253); experiment: qHTS for Inhibitors of Polymerase Eta; details: recombinant Pol eta, fluorescent DNA replication assay; series mostly up to 114 µM
Method in brief: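 Pol eta (10 nM) was preincubated with compounds for 15 min at room temperature, after which fluorescent replication substrate (50 nM final) was added to start the reaction. Fluorescence was read kinetically at 0 and 10 min.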
Potency is read from the fitted curve at half-maximal effect; tags tell the direction and shape of the fitted curve.

UniProt Q9Y253, sequence (Q9Y253 whole entry, looked up): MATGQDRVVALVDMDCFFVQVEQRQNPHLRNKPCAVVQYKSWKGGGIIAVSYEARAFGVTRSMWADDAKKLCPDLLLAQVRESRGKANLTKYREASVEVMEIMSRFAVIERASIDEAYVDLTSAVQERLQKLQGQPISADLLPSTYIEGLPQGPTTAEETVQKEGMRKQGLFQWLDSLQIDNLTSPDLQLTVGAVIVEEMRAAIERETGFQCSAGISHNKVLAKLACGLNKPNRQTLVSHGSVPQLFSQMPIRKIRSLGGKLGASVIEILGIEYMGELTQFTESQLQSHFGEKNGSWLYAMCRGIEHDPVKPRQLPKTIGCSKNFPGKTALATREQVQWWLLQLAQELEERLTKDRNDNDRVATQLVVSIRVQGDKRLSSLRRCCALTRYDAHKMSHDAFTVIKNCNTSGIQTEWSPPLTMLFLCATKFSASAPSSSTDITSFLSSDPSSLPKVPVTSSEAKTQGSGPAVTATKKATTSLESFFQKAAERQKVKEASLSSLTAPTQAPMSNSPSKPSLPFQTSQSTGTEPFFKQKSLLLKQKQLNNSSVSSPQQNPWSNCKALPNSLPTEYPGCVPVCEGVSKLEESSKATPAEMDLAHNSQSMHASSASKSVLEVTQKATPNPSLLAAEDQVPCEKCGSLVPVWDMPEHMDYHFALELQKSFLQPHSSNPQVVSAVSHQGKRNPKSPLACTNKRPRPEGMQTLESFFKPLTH

Compound | Potency
Cn1c(SCC(=O)Nc2nccs2)nnc1-c1ccncc1 | inconclusive: 39.8 µM [inhibitor, single point]
CC(C)N(Cc1ccccc1)C(=O)CN1c2cccc3cccc(c23)S1(=O)=O | inconclusive: 25.1 µM [inhibitor, partial curve, poor fit]
CCCCCCCCCCCCN1[C@@H](CC(=O)O)c2cc(C(F)(F)F)ccc2S1(=O)=O | active: 44.7 µM
NC(=O)c1ccsc1NC(=O)COC(=O)Cc1n[nH]c(=O)c2ccccc12 | inconclusive: 15.8 µM [inhibitor, partial curve]
N#Cc1cccc(NC(=O)CSc2sc3c(O)cc(=O)[nH]c3c2C#N)c1 | active: 50.1 µM
CCOC(=O)c1c(C)c(-c2ccccc2)n(CC(=O)Nc2cc(C)ccc2OC)c1C | inactive
O=C(N/N=C/c1cccc([N+](=O)[O-])c1)c1cc(-c2ccc3c(c2)OCO3)n[nH]1 | active: 17.8 µM
CCC(=Nc1ccc(N)cc1)C1=C(O)C(C(=O)OC)C(C)(C)CC1=O (centres undefined) | inactive
CCOc1ccc(-n2c(C)c(C(C)=O)c(C(C)=O)c2C)cc1 | inconclusive: 31.6 µM [inhibitor, partial curve, poor fit]
CC(=O)Nc1c(O)nc(SCC(=O)Nc2nnc(SCc3ccccc3)s2)[nH]c1=O | active: 35.5 µM
O=c1cc(/N=C/c2coc3cc(Br)ccc3c2=O)[nH]c(=S)[nH]1 | inactive
CC1CCc2c(sc(NC(=O)C3c4ccccc4Oc4ccccc43)c2C#N)C1 (centres undefined) | inactive
Cc1ccc(CNC(=O)c2ccc3c(=O)n(CCCN4CCCC4=O)c(=S)[nH]c3c2)cc1 | inactive
O=c1cc(O)cc(/C=C/c2ccc(O)c(O)c2)o1 | active: 0.794 µM
NC(=O)c1c(NC(=O)CN2C(=O)NC(Cc3ccccc3)C2=O)sc2c1CCC2 (centres undefined) | inconclusive: 44.7 µM [inhibitor, partial curve]
COC(=O)c1scc(-c2ccc(C)cc2)c1S(=O)(=O)N1CCN(c2ccc(C(C)=O)cc2)CC1 | inconclusive: 79.4 µM [inhibitor, partial curve, poor fit]
O=C(NCc1ccco1)c1sc(=S)n2c1[nH]c(=O)c1ccccc12 | active: 22.4 µM
COc1ccc(CN(C(=O)CN2C(=O)c3ccccc3S2(=O)=O)C(C(=O)NCC2CCCO2)c2ccco2)cc1 (centres undefined) | inactive
Cc1ccccc1N1CCN(S(=O)(=O)c2nnc(NC(=O)c3ccco3)s2)CC1 | inconclusive: 79.4 µM [inhibitor, partial curve]
COc1ccc2oc(C(=O)OC(C)C(=O)N(C)c3ccccc3)c(C)c2c1 (centres undefined) | inconclusive: 22.4 µM [inhibitor, single point]
Cc1nc(Cl)cc(N/N=C/c2ccc(O)cc2O)n1 | inconclusive: 70.8 µM [inhibitor, partial curve, poor fit]
CSc1ccccc1NC(=O)c1c(Br)cnn1C | inactive
CCn1cnc2cc(NCc3ccc(OC)cc3)ccc21 | inactive
O=C(COc1ccc(Cl)cc1)Nc1cc(S(=O)(=O)N2CCCCC2)ccc1N1CCCCC1 | inactive
Cc1cc(N2C(=O)c3ccc(C(=O)Nc4ccc(O)cc4C(=O)O)cc3C2=O)no1 | inconclusive: 56.2 µM [inhibitor, partial curve, poor fit]

Compound | Potency
C=CCN1C(=O)/C(=C/c2ccsc2)SC1=S | inactive
COCCCNc1nc2c(S(=O)(=O)c3ccc(C)c(C)c3)nnn2c2ccc(Cl)cc12 | inactive
O=C(c1cc2nc(C3CC3)cc(C(F)F)n2n1)N1CCOCC1 | active: 12.6 µM
Cc1ccccc1C(=O)Nc1ccc2c(C#N)c3nc4ccccc4nc3n2c1 | active: 10 µM
CCn1c(SCC(=O)N/N=C/C=C/c2ccco2)nnc1-c1ccccc1 | inconclusive: 35.5 µM [inhibitor, single point]
COc1cccc(/C=C2\SC(=S)N(CCCC(=O)Nc3ccc(C(=O)O)cc3)C2=O)c1 | inconclusive: 89.1 µM [inhibitor, single point]
COc1ccc(NC(=O)CSc2nnc(NC(=O)C3CC3)s2)cc1OC | inactive
COc1cccc(OC)c1OCCCOc1ccc(C)cc1Br | inconclusive: 22.4 µM [inhibitor, partial curve, poor fit]
COc1ccccc1C(=O)NC(=S)/C=C1/N(C)c2ccccc2C1(C)C | inconclusive: 89.1 µM [inhibitor, partial curve, poor fit]
Cc1ccc2scc(N3CCN(c4ccc(F)cc4)CC3)c(=O)c2c1 | inactive
COc1ccc(S(=O)(=O)N2CCN(C(=O)C3COc4ccccc4O3)CC2)cc1 (centres undefined) | active: 10 µM
O=C(O)c1ccc(Nc2nc(-c3cc4ccccc4oc3=O)cs2)cc1O | active: 25.1 µM
O=S1(=O)N[C@@H](CC2=CCCCC2)C2CCCCC2O1 (some centres undefined) | inconclusive: 89.1 µM [inhibitor, partial curve, poor fit]
COc1ccc(Cc2nnc(NC(=O)Cc3cccs3)s2)cc1 | active: 1 µM
Oc1cc(NCCc2cccnc2)cc2cccnc12 | inactive
CC1(C)CC(=O)C2=C(C1)NCN(Cc1ccc3c(c1)OCO3)C2 | inconclusive: 39.8 µM [inhibitor, partial curve, poor fit]
CCCN1Cc2cccc(C(=O)Nc3ccc(-c4nc5ccccc5[nH]4)cc3)c2C1=O | inconclusive: 5.62 µM [inhibitor, partial curve, poor fit]
O=C(O)CNC(=O)CC1S/C(=N/N=C2/NC(=O)CS2)NC1=O (centres undefined) | active: 44.7 µM
COc1ccc(Cl)c(Cn2c(NCc3ccco3)nc3c2c(=O)n(C)c(=O)n3C)c1 | inconclusive: 11.2 µM [inhibitor, partial curve, poor fit]
O=C(NN=C1CCCC1)c1ccccc1O | inactive
O=C(O)c1ccc(/C=C/c2ccc3cccc(O)c3n2)cc1 | active: 79.4 µM
O=C(Nc1ccc2nc(-c3cccs3)[nH]c2c1)c1cccs1 | inconclusive: 22.4 µM [inhibitor, partial curve, poor fit]
N#CSC(c1ccccc1)c1nc2ccccc2[nH]c1=O (centres undefined) | inconclusive: 79.4 µM [inhibitor, partial curve]
Cc1cc(OCC(=O)OCC(=O)NC2CCS(=O)(=O)C2)ccc1Cl (centres undefined) | inactive
C=CCn1c(COc2ccc(Cl)cc2)nnc1SCc1ccc(C#N)cc1 | inactive

Compound | Potency
CC(C)CC(=O)c1c[nH]c(C(=O)NCc2ccc(F)cc2)c1 | inconclusive: 25.1 µM [inhibitor, single point]
COc1ccccc1CN1C(=O)CN(C2CCCCCC2)C(=O)C1c1ccc(C)cc1 (centres undefined) | inactive
CC(OC(=O)c1nsc(Cl)c1Cl)C(=O)NCCc1ccccc1 (centres undefined) | inconclusive: 79.4 µM [inhibitor, partial curve, poor fit]
CCOc1cc(/C=C2/C(=N)N3C=CSC3=NC2=O)ccc1OCCCOc1ccccc1C | inconclusive: 56.2 µM [inhibitor, partial curve]
CC1CCN(Cc2nnnn2CCCC(=O)N(C)C2CCOC2)CC1 (centres undefined) | inconclusive: 100 µM [inhibitor, single point]
O=C(O)CS(=O)(=O)c1ccc(Oc2ccc(S(=O)(=O)CC(=O)O)cc2)cc1 | inactive
O=c1[nH]c(=O)n([C@H]2C[C@H](O)[C@@H](CO)O2)cc1/C=C/Br | inactive
COc1cccc(N2CC(C(=O)Nc3nnc(SCCC4OCCO4)s3)CC2=O)c1 (centres undefined) | active: 44.7 µM
O=C(Nc1ccccc1F)c1cc2c(s1)-c1ccccc1S(=O)(=O)C2 | inconclusive: 70.8 µM [inhibitor, partial curve, poor fit]
Cc1sc(NC(=O)Cn2[nH]c(=O)c3ccccc3c2=O)nc1-c1ccccc1 | inconclusive: 28.2 µM [inhibitor, partial curve, poor fit]
O=C(/C=C/c1ccco1)c1ccc(NC(=O)C23CC4CC(CC(C4)C2)C3)cc1 | active: 10 µM
Nn1cnnc1N/N=C/c1ccccc1C(F)(F)F | inactive
CC(C)C(=O)Nc1nnc(SCC(=O)Nc2ccc3c(c2)OCCO3)s1 | inconclusive: 89.1 µM [inhibitor, partial curve, poor fit]
CCOC(=O)c1sc(NC(=O)CSc2n[nH]c(-c3ccccc3)n2)c(C#N)c1C | inconclusive: 28.2 µM [inhibitor, partial curve]
CSc1ccc(CCNC(=O)CSc2ccsc2[N+](=O)[O-])cc1 | inconclusive: 89.1 µM [inhibitor, single point]
C=CCn1c(SCC(C)=O)nc2scc(-c3ccco3)c2c1=O | active: 39.8 µM
Cc1cc(=O)oc2c(CN3CCC(C)CC3)c(O)c(Cl)cc12 | active: 12.6 µM
CC(C)Oc1ccc(C(CCN)C2CCCCC2)cc1 (centres undefined) | inconclusive: 50.1 µM [inhibitor, partial curve, poor fit]
C/C(=N/NC(=O)c1ccncc1)c1ccc(NC(=O)c2ccc(Cl)cc2Cl)cc1 | inconclusive: 89.1 µM [inhibitor, partial curve]
Oc1ccc(Nc2nc3ccccc3nc2Nc2ccc(O)cc2)cc1 | inconclusive: 20 µM [inhibitor, full curve, poor fit]
CC(C)=C1C(=O)NN(c2cccc(Cl)c2)C1=O | inactive
Oc1c(N=Nc2ccccn2)ccc2ccccc12 | inactive
CCOC(=O)C1=C(C)NC(=S)NC1c1ccco1 (centres undefined) | inconclusive: 50.1 µM [inhibitor, partial curve, poor fit]
CCOC(=O)c1c(NC(=O)/C=C/C(=O)O)sc(C)c1-c1ccc(Cl)cc1 | active: 79.4 µM

Source: PubChem BioAssay AID588591 (National Center for Advancing Translational Sciences (NCATS), 2011)
